# The full ranking holds about 110,000 compounds; the median of “z-score” is about -0.1, and the highest 2% start at about 2. The list shows a part of the results. Activity calls are given as the source filed them.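 Rule for the calls: active = z-score in the third read window above 3 or below -3; inactive = the rest.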
# Molecular target: Metabotropic glutamate receptor 8 (Rattus norvegicus) (UniProt P70579)
# Assay: mGluR8 Gi/Go-coupled signaling modulation – cell-based, rat, thallium flux, HTS, primary screen (AID 488969)
# Conditions: HEK293 rat mGluR8, GIRK (G protein-gated inwardly rectifying potassium channel) thallium flux, FluoZin2; at 10 µM; stronger effect = higher value; submaximal glutamate (EC20) added with thallium
# Sequence of UniProt P70579 (P70579 whole entry, looked up): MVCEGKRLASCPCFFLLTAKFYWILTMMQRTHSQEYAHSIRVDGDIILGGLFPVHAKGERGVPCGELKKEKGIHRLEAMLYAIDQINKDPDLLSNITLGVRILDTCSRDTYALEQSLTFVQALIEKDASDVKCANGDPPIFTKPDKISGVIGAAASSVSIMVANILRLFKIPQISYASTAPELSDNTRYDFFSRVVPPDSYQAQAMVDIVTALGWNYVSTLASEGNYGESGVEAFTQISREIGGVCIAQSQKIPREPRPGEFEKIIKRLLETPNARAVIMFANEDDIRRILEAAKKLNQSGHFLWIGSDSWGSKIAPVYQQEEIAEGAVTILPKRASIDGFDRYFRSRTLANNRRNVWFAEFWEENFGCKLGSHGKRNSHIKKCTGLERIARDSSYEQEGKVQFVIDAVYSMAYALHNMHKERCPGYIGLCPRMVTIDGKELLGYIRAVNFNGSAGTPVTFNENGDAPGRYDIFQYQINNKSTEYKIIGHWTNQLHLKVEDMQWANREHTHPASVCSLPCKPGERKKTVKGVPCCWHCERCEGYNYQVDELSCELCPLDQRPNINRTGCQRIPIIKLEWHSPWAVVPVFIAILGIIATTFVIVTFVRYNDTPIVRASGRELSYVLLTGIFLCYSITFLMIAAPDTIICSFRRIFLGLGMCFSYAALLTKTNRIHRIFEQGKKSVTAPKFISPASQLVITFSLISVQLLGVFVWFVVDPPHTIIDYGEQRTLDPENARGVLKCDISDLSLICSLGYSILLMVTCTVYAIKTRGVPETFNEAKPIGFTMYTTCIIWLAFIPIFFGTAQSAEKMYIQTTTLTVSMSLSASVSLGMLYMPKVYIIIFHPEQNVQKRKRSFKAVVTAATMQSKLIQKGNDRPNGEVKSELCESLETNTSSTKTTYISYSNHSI
row,Compound,z-score
1,Cc1ccc(-c2cc(C(F)F)nc(NCc3cccnc3)n2)cc1,-0.718
2,Cc1ccc(-c2nnn(CC(=O)N(CC(=O)NCc3ccccc3)c3cccc(C)c3C)n2)o1,-0.68
3,CCOC(=O)N1CCC(NC(=O)CS(=O)Cc2nc(-c3ccc(OC)c(OC)c3)oc2C)CC1 (stereo not given),-1.06
4,Nn1c(SCC(=O)Nc2ccc3c(c2)OCO3)nnc1-c1ccc(Cl)cc1,-0.179
5,CCOC(=O)c1ccc(NS(=O)(=O)c2ccc3c(c2)oc(=O)n3C)cc1,0.684
6,Cc1ccc(C(=O)NCc2ccco2)cc1Br,-0.302
7,Cn1c(CNC2CCCCC2)c(C#N)c2ccccc21,0.256
8,Cc1cc(OC(=O)C(c2ccccc2)c2ccccc2)c([N+](=O)[O-])c(=O)[nH]1,0.0153
9,CCOC(=O)CN(C(=O)CSc1nnc(-c2ccncc2)n1CCCOC)c1ccccc1,1.94
10,O=C(OCC(=O)N1CCc2ccccc21)c1cccnc1,-0.0106
11,COCCn1c(SCC(=O)c2ccc(CNC(C)=O)o2)nc2ccccc2c1=O,0.044
12,CCOC(=O)N1CCN(C(=O)Cc2ccsc2)CC1,-0.965
13,COc1cc(OC)cc(C(=O)NCCOc2ccccc2)c1,0.162
14,Cc1ccc(S(=O)(=O)NC(=O)c2cc(C)n(-c3cc(S(=O)(=O)N4CCOCC4)ccc3N3CCCC3)c2C)cc1,0.0127
15,NC(=O)c1ccc(NC(=O)c2ccc(CN3CCOCC3)cc2)cc1,-0.165
16,O=C(Nc1cccc(-c2cn3cccnc3n2)c1)c1cccs1,0.0303
17,O=c1c2c(nc3cc(-c4cccc(Cl)c4)[nH]n13)CCC2,0.391
18,COc1ccc(OC)c(C(=O)c2ccc(C(=O)Nc3cccc4ccccc34)cc2)c1,0.682
19,CC1CCCCC1NC(=O)CSCC(=O)O (stereo not given),-0.0424
20,Cc1ccc(NC(=O)C(CC(C)C)NC(N)=O)cc1 (stereo not given),-0.23
21,Cc1ccc(NC(=O)c2sc3nc[nH]c(=O)c3c2C)c(C)c1,-0.214
22,CCC(CC)n1[nH]c(=O)cc1N,-0.356

row,Compound,z-score
1,Cc1ccc(C)c(NS(=O)(=O)c2cc(C(N)=O)ccc2C)c1,-0.155
2,O=C(COC(=O)CCC(=O)c1cccs1)NCc1ccco1,0.176
3,CCOc1ccccc1N1CCN(C(=O)CCCN2C(=O)c3cccc4cccc(c34)C2=O)CC1,-0.743
4,CCOC(=O)C1CCCCN1Cc1ccc(F)cc1 (stereo not given),0.191
5,CCC1CCc2c(sc(N)c2C(N)=O)C1 (stereo not given),-0.0172
6,CCOc1ccc(NC(=O)NC23CC4CC(CC(C4)C2)C3)cc1,active: 4.76
7,CC1(C)Cc2c(c(-c3ccccc3)nc(N3CCOCC3)c2C(N)=O)CO1,-0.0493
8,COc1ccccc1-c1nnc2sc(-c3cc4ccccc4o3)nn12,-0.509
9,CC(C)(C)c1ccccc1NC(=O)c1cccnc1,-0.269
10,Cc1ccc(S(=O)(=O)NC(=O)COc2ccccc2C)cc1,-0.0338
11,Cc1c(C(=O)NCc2ccc3c(c2)OCO3)sc2nc(-c3ccccc3)cn12,-0.308
12,O=C(c1ccc2nc3ccc(Cl)cc3c(=O)n2c1)N1CCOCC1,-0.0431
13,O=C(NCc1ccco1)C1CCN(C(=O)c2cc3sccc3n2Cc2ccc(F)cc2)CC1,-0.504
14,CCCCCCCCn1c(=O)c(C(=O)OCC)c(O)c2ccccc21,-0.919
15,COC(=O)c1c(NC(=O)COC(=O)c2ccc(O)cc2)sc2c1CCCCC2,-0.28
16,CC(C)CNC(=S)NC(=O)c1ccc(F)cc1,active: 7.84
17,Cc1ccc(C(=O)CC2(O)C(=O)N(C)c3ccccc32)o1 (stereo not given),-0.229
18,COCCN(C(=O)C1CC1)c1nnc(-c2ccc(C)cc2)s1,-0.0888
19,O=C1c2cccc3cccc(c23)C(=O)N1CCN1CCN(CC(O)COc2ccccc2)CC1 (stereo not given),0.169
20,COc1cc(C(C)=O)ccc1COc1ccc(C(=O)OCC(=O)NC2CCS(=O)(=O)C2)cc1OC (stereo not given),-0.225
21,CC(=O)c1ccc(Oc2cc(-c3ccccc3)nc(-c3ccccc3)n2)cc1,-0.244
22,OCCNc1c2ccccc2nc2c(F)c(F)c(F)c(F)c12,0.45

row,Compound,z-score
1,C=C(C)c1cccc(C(C)(C)NC(=O)N2CCN(C/C=C/c3ccccc3)CC2)c1,-0.794
2,Cn1c(SCCOc2cccc(Cl)c2)nnc1-c1ccncc1,-0.17
3,CC(=O)Oc1ccc2c(c1)c(C(C)=O)c(C)n2C,-0.312
4,COc1cc(/C=C2/SC(=S)N(c3ccccc3)C2=O)ccc1Oc1nc(N2CCOCC2)nc(N2CCOCC2)n1,-0.0521
5,C=CCn1c(-c2ccccc2)ccc(C#N)c1=O,-0.338
6,COc1ccc(-n2c(SC3CCOC3=O)nc3ccccc32)cc1 (stereo not given),-2.32
7,CC(=O)Nc1cccc(OCC(=O)Nc2ccccc2)c1,0.915
8,CCCSc1nc(NCc2ccco2)c2c3c(sc2n1)COC(C)(CC)C3 (stereo not given),-0.281
9,COc1cccc(-n2c(Cn3nc(C(F)F)cc3C(F)F)n[nH]c2=S)c1,-0.302
10,Cn1c(-c2ccc(C=O)s2)nc2c3ccccc3c3ccccc3c21,-2.05
11,CC(C)c1ccc(NC(=O)N(CCc2nc3ccccc3[nH]2)C2CCCC2)cc1,1.15
12,Cc1nn(-c2ccccc2)c(C)c1/C=N/NC(=O)c1cccs1,-2
13,CCCCCCN1C2=NCCN2c2ccccc21,active: 7.63
14,CCCN1CCN(CCCNC(=O)Cn2nc(-c3ccc(Cl)cc3)ccc2=O)CC1,-0.145
15,Cc1ccccc1-c1nc(CN2CCC(C(=O)N3CCC(C(N)=O)CC3)CC2)c(C)o1,0.315
16,Cc1cc(C)n(Cc2n[nH]c(=S)n2Cc2ccccc2)n1,0.459
17,CCC(C)NC(=O)c1ccccc1NS(=O)(=O)c1ccc(OC)c(OC)c1 (stereo not given),0.161
18,C#CCOc1nc(OCC#C)nc(OCC#C)n1,0.0178
19,CCOC(=O)Cn1cnc2c(cnn2-c2ccc(Cl)cc2)c1=O,0.187
20,O=C(COC(=O)c1ccccc1Nc1cccc(C(F)(F)F)c1)NCc1ccco1,-0.0996
21,Cc1ccc(S(=O)(=O)N(CC(=O)O)Cc2ccccc2F)cc1,-0.0921
22,COC(=O)C1=C(C(C)=O)C(c2ccc(C)cc2)n2nnnc2N1 (stereo not given),1.36

row,Compound,z-score
1,Cc1ccc(N2C(=O)NC(NC(=O)C3CC3)(C(F)(F)F)C2=O)cc1 (stereo not given),-0.133
2,CNC(=S)N1N=C(c2ccc(C)cc2)CC1c1ccc(OC)c(OC)c1 (stereo not given),-0.191
3,CCCC(C)C(=O)Nc1nc(C)c(-c2csc(Nc3cc(OC)ccc3OC)n2)s1 (stereo not given),0.302
4,CCOC(=O)CSc1nnc([C@@H](NC(=O)OC(C)(C)C)C(C)C)o1,-0.158
5,COc1cccc(NC(=S)N2CCCC2)c1,-0.239
6,CCc1cccc(CC)c1NC(=O)COC(=O)c1ccccc1-c1nc2ccccc2s1,-0.194
7,CCSc1nnnn1-c1ccccc1,-0.0524
8,CCCc1nnc(NC(=O)CCC(=O)Nc2ccc(F)cc2)s1,-1.03
9,CCOC(=O)c1ccccc1NC(=O)Nc1ccc(OC)c(OC)c1,0.154
10,Cc1sc(NC(=O)CSc2nnc(C(C)C)n2C)c(C#N)c1C,1.76
11,C#CC[N+](CC)(CC)CC#Cc1cccc(Cl)c1,-0.0419
12,CC(=O)NC1C(=O)Nc2c1cccc2C(F)(F)F (stereo not given),-0.302
13,O=C(N/N=C/c1cccs1)c1cccc(NC(=O)c2ccccc2Cl)c1,-0.218
14,CCC(C(=O)NC1CCCCC1)N(CC1CCCO1)C(=O)CNS(=O)(=O)c1ccc(OC)cc1 (stereo not given),0.0163
15,Cc1csc(-c2cnn(-c3ccccc3)c2NC(=O)c2cccc(C(F)(F)F)c2)n1,-0.637
16,CCN(CC(=O)O)S(=O)(=O)c1cc(Cl)ccc1Cl,-0.13
17,COc1ccc(C(=O)NNc2ccccc2)cc1OC,-0.385
18,O=C(CN1C(=O)C2CC=C(Cl)CC2C1=O)Nc1ccc(C(=O)O)cc1 (stereo not given),-0.407
19,COCCNS(=O)(=O)c1cccc2cccnc12,-0.403
20,COc1cccc(NC(=O)c2ccccc2NS(C)(=O)=O)c1,0.815
21,COc1cc(CNC2CCC(C)C2)cc(OC)c1 (stereo not given),0.0941
22,COC(=O)c1c(NC(=O)CC2SC(N)=NC2=O)sc2c1CCCC2 (stereo not given),-0.275

row,Compound,z-score
1,CNc1nc(C)c(C(=O)OCc2ccccc2)s1,-0.438
2,O=C(NNC(=S)NCc1ccccc1)c1ccc2c(c1)OCO2,-0.344
3,O=C(NC1CCCC1)C(c1ccncc1)N(Cc1ccccc1)C(=O)c1ccc(-c2ccccc2)[nH]1 (stereo not given),0.0464
4,CCOC(=O)c1sc(NC(=O)CN2C(=O)c3cccc4cccc(c34)C2=O)nc1C,-0.0317
5,Cc1ccc(C(=O)NCCSCc2ccccc2)cc1[N+](=O)[O-],-0.369
6,CCOC(=O)Cc1csc(NC(=O)C2CCCN(S(=O)(=O)c3cnc[nH]3)C2)n1 (stereo not given),-0.322
7,C/C(=N/N1CCN(c2ccccn2)CC1)c1cccc([N+](=O)[O-])c1,-0.367
8,COC(=O)c1[nH]c2ccc(F)cc2c1NC(=O)CCN1CCN(Cc2ccc3c(c2)OCO3)CC1,-0.752
9,CCOc1ccc(CCNC(=O)CN2CCN(Cc3ccccc3F)C2=O)cc1OCC,0.219
10,COc1ccc(C2N(c3cc(Cl)ccc3OC)C(=O)C3CCCN32)c(OC)c1 (stereo not given),-0.695
11,CCOC(=O)N1CCN(C(=O)CCc2ccc(S(=O)(=O)NCCc3ccccc3)cc2)CC1,-0.186
12,COc1cccc(C2C3=C(N=c4s/c(=C\c5ccc(O)cc5)c(=O)n42)c2ccccc2CC3)c1OC (stereo not given),0.187
13,CCCNC(=O)CN(C)S(=O)(=O)c1ccc(F)cc1,0.0374
14,CCn1c(SCc2ccc(C#N)cc2)nnc1-c1cccc(Cl)c1,-0.177
15,CCc1cccc(CC)c1NC(=O)COC(=O)/C(C#N)=C/c1ccc(OC)cc1,-0.205
16,Cc1ccc(C(=O)c2c(C)oc3c2C(=O)C(=O)c2ccccc2-3)cc1,-0.95
17,CCOC(=O)N1CCN(c2c(N3CCN(c4cccc(C)c4C)CC3)c(=O)c2=O)CC1,0.0202
18,COc1ccc(OCc2nnc3n2N=C(c2ccc(Br)cc2)CS3)cc1,0.109
19,COCC(=O)NCCSc1c(C)[nH]c2ccccc12,0.0766
20,O=c1oc(-c2ccccc2)nc2c1cnn2-c1ccccc1,-0.85
21,CCOC(=O)N1CCN(C(=O)C2CCCN(S(=O)(=O)c3cc(C)ccc3OC)C2)CC1 (stereo not given),-0.0824
22,Nc1nc(NCc2cccs2)nn1-c1ccccc1,1.01

# From PubChem BioAssay AID488969 (Vanderbilt High Throughput Screening Facility, 2010)
